Values marked as one replicate rest on one cluster of the flow cell; about a third of the high ones do not repeat.
System: ATP
Experiment: switch fluorescence ratio, 500 uM ATP over buffer (Cy3 cluster intensity, sum of 5 cycles each) (fold (ratio)); higher = stronger signal-on switching upon ATP binding; sequences stand for … in TCGTCGGCAGCGTCAGATGTGTATAAGAGACAGTTTTTTTTTTTTTTTTTTTTTTTTT…TC
Details: aptamer strand: ATP DNA aptamer (quencher-CACCTGGGGGAGTATTGCGGAGGAAGG + anchor), 100 nM annealed; ATP concentration: 500 uM; one replicate
Method in brief: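 For every switch-domain sequence, the fluorescence ratio is the mean of per-cluster values, each being summed target-cycle Cy3 intensity over summed buffer-cycle Cy3 intensity. Clusters outside 100-1000 RFU were excluded. On a modified Illumina MiSeq flow-cell, the Cy3-labelled switching-strand clusters were annealed to 100 nM quencher-labelled ATP aptamer, imaged in selection buffer and then after 15 min with 500 uM ATP at 22 °C. Five such cycles were run, with NaOH stripping and re-annealing between them.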
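Also: ATP exposure 15 min at 22 °C before imaging.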

Sequence | switch fluorescence ratio
AGTGATACGA | 1.32
AGTAGATATG | 0.943
TAGCTCAGGT | 1.07
CGAGGTACCG | 0.826
GTTTCAAGGG | 0.938
TGGGATCGG | 1.01
TATGGTAAAG | 1.02
AAATTTTTCG | 0.968
GGGCAATACG | 1.81
GCGATGTGTG | 1
TTTTGGCTT | 0.997
ACTTGTGGCA | 1
GAAAAAGTTG | 0.879
ATAGGGGCCG | 1.07
ACTAGAGTTT | 1.04
GCGTTCTTCG | 1.04
AACGTGACTT | 1.23
AAGTCACGGC | 1.07
GATTCAGTGG | 1.01
CCGCGCAGTG | 1.85
ATAAATGACA | 0.982
CTGAACGGTG | 1.09
GAAGGGATAG | 1.03
ACTCTCAAAA | 0.98
AGCTTCATTA | 0.993
CAGCGAGCA | 1.05

Sequence | switch fluorescence ratio
ACTGCACTCC | 1.69
GGTCGGAACA | 0.979
GCCGAGCTTG | 1.01
GCAAATATCT | 1.05
AATGGAAGTA | 1.03
GGCGCCCGGT | 0.961
ATCCTCTTTA | 0.999
GCGGGAGCTG | 1
CGTTTCAATC | 1.16
TCATATACTG | 1.01
CGCGAATAAA | 0.998
TTGGTTTCAC | 0.993
GTTGATTCGA | 0.977
TAACGTTTAC | 1.14
GCTCCGGAGG | 1.02
TCAGGTGCTC | 1.94
GCAGGCCGTC | 1
TAGTGACAA | 1.03
CCCGTCGGTA | 1.01
AACCTGGTC | 0.97
ATCAAACGGT | 1.02
TAAGCTGAAG | 1.03
ATGCCTTACC | 1.5
GCTAATCCGG | 0.987
GGCGTGTTCG | 1
CACGGCTTAC | 2.29

Sequence | switch fluorescence ratio
GGTAACGTG | 1.07
GGCCCTGTC | 1.03
GCGGGGCGA | 1.02
ACGGGGACGC | 0.959
ATGAGAAGAG | 1.01
CGGAAGTCCT | 1.02
AATTGCTCGC | 1.05
TAAGTATCTG | 0.983
CGTGAATATG | 0.989
TCGCCAGTAC | 3.66
TGTGGGTGA | 1.06
ACTCTTGAGC | 0.982
GAGTAGAACT | 0.987
TAGGTAGCTG | 1.05
ACGGTCGGGA | 0.994
GAGTTAGGAT | 0.948
GTAAAAAATT | 0.963
GATTTGTTAC | 0.993
GTCCAAGATG | 1.05
GCGTCAAGT | 0.998
ACGATCCTGC | 1.06
TGTATAAGAG | 0.969
GGGTGTCCGG | 0.997
GTAGGTCCAG | 0.992
AGATTGACAT | 1.04
GATTAGGCTA | 0.99

Sequence | switch fluorescence ratio
GATGATTG | 0.95
AGTTTTACCA | 0.997
TATTTCCC | 1.02
TGAGGTTCGG | 1.01
GTTGACGCCG | 1.04
CGCATCGACT | 1.31
GTCAAACCAG | 1.06
CCCAAGCAGT | 3.94
AGCCTCAGGC | 1
GGCCCTCGGA | 0.975
TGCTCGCTCT | 0.999
ATATGGGTCA | 0.97
TAGGGAAACG | 0.98
TTCCCAGCAT | 1.23
CGACGTGCC | 1.11
GGTATAGTCA | 1.01
ATAAAGTCGA | 0.949
TCAGTCCCTT | 0.978
TGGCTGAAGT | 1.06
AATTGGGGAG | 0.97
ACATTAAGC | 1.03
TGTGAGGAG | 1
GGTTGACTTC | 0.969
CTTATTGTTA | 1.03
CGGAATTAAA | 0.98
ATAGGTGGCC | 0.979

Sequence | switch fluorescence ratio
CGGTTAGGGT | 0.987
ATGTGGTGCG | 0.966
GCCGATTGTA | 0.967
GCACATCAAG | 1.03
TTTGGAGACC | 1.05
CGTCTCGGGC | 1.04
TAAGTGCGAC | 1.04
GACAGGAGCA | 1.09
GCTACGTAAT | 6.24
ACTGCATCTG | 1.03
TCCTACTTAT | 1.08
CTTGGTTGTA | 0.989
GAATCAGGTC | 0.988
GATAACCCGA | 1.19
TTTGCATTTC | 1.1
GGGTCAGTAA | 1.02
CTGTCCATTC | 1.04
GAATTCGATG | 1
CGGCCAGCGG | 1
TCTCGGGCGG | 0.988
GGCCTTAAAA | 0.929
TCCGATTTAG | 1.15
CGATCTTCGC | 1.07
AAGACGGTCG | 1.32
ATCAATCGTT | 0.987
AACCTATGGC | 1.07

Sequence | switch fluorescence ratio
CGTGCTGACC | 1.01
TGACGTAGCG | 0.969
GAGATGAGA | 1
TGACGGTGCA | 1
GCAACATGAC | 1.45
TTAATGATGA | 1.04
AGTTGTTCTC | 0.989
ATATCTGCAC | 1.14
ATGAGATAGA | 0.985
TATTTGGGC | 1.07
CCCATGGGC | 1.03
CTGTCATTTT | 1.03
GAGTTGCAG | 0.94
AGGCTAGAA | 0.985
ATCTGCGTG | 0.966
AGCTAACGAG | 1.07
ACATGGGGTG | 1.11
CGGGAATGGT | 1
GCCCCCCGGG | 1.29
TAGGAAAACG | 1.05
CTCTTTAATC | 1.02
ATCGGCGCA | 0.965
ACTATGTAGT | 0.959
CCGTAGAAAC | 3.85
TGATGTTTAC | 1
GGCCGCTTTG | 1.08

Sequence | switch fluorescence ratio
GTTAAGGAAG | 0.99
CGCAGATTTC | 1.19
TACTGAATTC | 1.06
GGAGAAAGGG | 1.01
GAGGAACTGT | 1.04
ATTTTCCT | 1.04
AACCCGGGTG | 1.01
TGTCCACGGA | 1.06
AACCTGGTAC | 1.2
GACCTAATCT | 1.06
CCATAGCTTG | 1.03
CCATAAAGTT | 1.03
ATAAAATTTG | 1.01
TAACTTTAAC | 1.02
CTATATTGCA | 1.01
TCCGTGTAGC | 1.06
TCGGAAGGT | 1.02
CGACTGACCG | 1.05
ACCGGGTCCA | 0.99
CGGAACGGGC | 0.966
GCAAGGTAAC | 1.1
ATGACGTCCT | 0.984
TAAGTGAAGG | 1.01
ACGGATCGTA | 0.958
AATATACAGT | 1.07
TTTTTGGTTC | 1.13

Sequence | switch fluorescence ratio
TGTAGTAGAA | 0.992
ATGTCTGGTA | 0.988
TTTTGCCAAT | 1.02
ACCCTGCATC | 1.81
CCGAATGGCT | 1.09
GATAGCGA | 1.01
TTTATAGGAT | 0.977
TCGGGCGAGA | 1.05
GTTTGTAAA | 0.989
ATATGCCCAG | 0.975
CAAGGACGGT | 1.03
TAAAAAGTTG | 1.12
GCATCTCACG | 1.08
TGTCGTGTCT | 1.04
CCACCTTAGG | 1.03
TCCTGCGTTT | 1.04
TTGGTTCGGT | 1.02
ACGAACCTGT | 0.981
GGCATCAGAG | 1.01

— the supplement of paper PMC10126150
